From PubChem BioAssay (EPA / NIEHS)
The hits were mostly taken out for another list; the other results follow. Results filed as inconclusive are left out. Some structures have more than one record in an assay (separate samples or runs), and their calls can disagree. Active and inactive are the calls of the source. The calls were made as follows: active = hit-call score of the fitted dose curve at least 0.9, where 1 is the maximum; inconclusive = response in the unintended direction; inactive = score below 0.9.

The molecules below were run against Cellular tumor antigen p53 (Homo sapiens) (UniProt P04637) (assay: TOX21_p53_BLA_p5_ratio: Tox21 HCT-116 p53 Agonism Beta-lactamase Assay, Ratio, Phase 5 (AID 2283599)).
Excerpt: TOX21_p53_BLA_p5 is a cell-based, single-readout assay that uses HCT116, a human intestinal cell line, […] in a 1536-well plate.TOX21_p53_BLA_p5_ratio is an assay readout measuring reporter gene via receptor activity and designed using inducible reporter (beta lactamase induction) detected with GAL4 b-lactamase reporter gene. The signal is derived from the ratio of cleaved (ch2) to uncleaved (ch1) reporter gene substrate used as the measure of target activity.Data from the assay component TOX21_p53_BLA_p5_ratio was analyzed into 1 assay endpoint. This assay endpoint, TOX21_p53_BLA_p5_ratio, was analyzed in the positive analysis fitting direction relative to DMSO as the negative control and baseline of activity. Using a type of inducible reporter, gain-of-signal activity can be used to understand changes in the reporter gene as they relate to the gene TP53. Furthermore, this assay endpoint can be referred to as a primary readout, because this assay has produced multiple assay endpoints and this ratio serves a reporter gene function to understand target activity. To generalize the intended target to other relatable targets, this assay endpoint is annotated to the DNA binding intended target family, where the subfamily is tumor suppressor.
Thawing Method: Place 14 mL of pre-warmed thaw medium into a 15 mL of conical tub. Remove the vial of cells to be thawed from liquid nitrogen and thaw rapidly by placing at 37C in a water bath with gentle agitation for 1-2 minutes. Decontaminate the vial by wiping with 70% ethanol before opening in a biological safety cabinet. Transfer the vial contents drop-wise into 14 mL of thaw medium in a sterile 15-mL conical tub. Centrifuge cells at 900 rpm for 4 minutes and resuspend in thaw medium. Transfer contents to the T75 tissue culture flask containing Thaw Medium and place flask in a humidified 37C/5% CO2 incubator. Switch to growth medium at first passage.Propagation Method: Aspirate medium, rinse once in DPBS, add 0.25% Trypsin/EDTA and swirl to coat the cell evenly. Add an equal volume of Growth Medium to inactivate Trypsin after 2-3 minutes incubation at 37C. Centrifuge cells at 900 rpm for 4 minutes and resuspend in growth medium. Cell should be passage or fed at least twice a week.Assay Protocol: Harvest cells from culture in growth medium and resuspend in assay medium. 2.2 Dispense 4000 cells/5 uL/well into 1536-well black/clear bottom plates using a Multidrop dispenser. After the cells were incubated at 37C for 5 hours, 23 nL of compounds dissolved in DMSO were transferred to the assay plate by a PinTool resulting in a 217-fold dilution. Incubate the plates for 16 hours at 37C, 5% CO2. Add 1 uL of 6X LiveBLAzer FRET B/G (CCF4-AM) Substrate Mixture to each well using a BioRAPTR dispenser and incubate the plates at room temperature for 2 hours. Measure fluorescence intensity at 460 and 530 nm emission and 405 nm excitation by an Envision detector. Data is expressed as the ratio of 460nm/530nm emissions. Add 4 uL of Cell-titer Glo to each well using BioRAPTR and incubate the plates at room temperature for 2 hours. Measure fluorescence intensity by a VewLux plate reader.
For `CCN(CC)C(=O)c1cccnc1`, the outcome was “inactive”.
For `CCCCCC/C=C/CCCCCCCC(=O)O`, the outcome was “inactive”.
In the case of `CCOc1cc(N)c(Cl)cc1C(=O)NCC1CN(Cc2ccc(F)cc2)CCO1` (stereo not drawn), the outcome is reported as “inactive”.
With `Cc1cc(C)cc(OCC2CNC(=O)O2)c1` (stereo not drawn) the outcome was “inactive”.
For `CC[C@H]1OC(=O)[C@H](C)[C@@H](O[C@H]2C[C@@](C)(OC)[C@@H](O)[C@H](C)O2)[C@H](C)[C@@H](O[C@@H]2O[C@H](C)C[C@H](N(C)C)[C@H]2O)[C@](C)(O)C[C@@H](C)CN(C)[C@H](C)[C@@H](O)[C@]1(C)O`, the outcome was “inactive”.
With `O=C(Nc1ccc2c(O)c(N=Nc3ccc(N=Nc4ccc(S(=O)(=O)O)cc4)cc3)c(S(=O)(=O)O)cc2c1)c1ccccc1` the outcome was “inactive”.
For `COc1ccc(O)cc1`, the outcome was “inactive”.
`COC(=O)CCC(=O)CN` was tested, and the outcome was “inactive”.
`COC(=O)[C@H]1[C@H]2C[C@@H]3c4[nH]c5ccccc5c4CCN3C[C@H]2C[C@@H](OC(=O)c2cc(OC)c(OC)c(OC)c2)[C@@H]1OC` was tested, and the outcome was “inactive”.
With `O=C(O)CCCCCCCC(=O)O` the outcome was “inactive”.
`CCCCCCCCCCCC[N+](C)(C)C` was tested, and the outcome was “inactive”.
With `C[C@H]1C[C@@H]2[C@H]([C@@H](O)C[C@@]3(C)[C@H]2CC[C@]3(O)C(=O)CO)[C@@]2(C)C=CC(=O)C=C12` the outcome was “inactive”.
With `COc1ccc(Br)c(C)c1` the outcome was “inactive”.
In the case of `CO[C@H]1[C@@H](O)[C@H](N)[C@@H](O[C@H]2O[C@H]([C@H](C)N)CC[C@H]2N)[C@H](O)[C@@H]1N(C)C(=O)CN`, the outcome is reported as “inactive”.
With `CCc1ccc(O)c(C(C)(C)C)c1` the AC50 was active: 86.2 µM.
For `Nc1cc(S(=O)(=O)O)ccc1S(=O)(=O)O`, the outcome was “inactive”.
For `C[N+]1(C)CCC(=C(c2ccccc2)c2ccccc2)CC1`, the outcome was “inactive”.
For `C[N+]1(C)[C@@H]2CC(OC(=O)C(O)(c3cccs3)c3cccs3)C[C@H]1[C@@H]1O[C@@H]12` (stereo partly drawn), the outcome was “inactive”.
With `BrC1CCC(Br)C(Br)CCC(Br)C(Br)CCC1Br` (stereo not drawn) the AC50 was active: 74.5 µM.
`COc1ccc(C(=O)c2ccc(OC)cc2O)c(O)c1` was tested, and the outcome was “inactive”.
`CCCC(=O)OCC` was tested, and the outcome was “inactive”.
`NNC(=O)c1ccncc1` was tested, and the outcome was “inactive”.
For `COC(C)CCO` (stereo not drawn), the outcome was “inactive”.
With `CN(C)c1nc(N(C)C)nc(N(C)C)n1` the outcome was “inactive”.
With `CCCCCC/C=C\CCCCCCCC(=O)O` the outcome was “inactive”.
With `CCOC(=O)c1ccc(OCCN2C[C@H](O)[C@@H](O)[C@H](O)[C@H]2CO)cc1` the outcome was “inactive”.
For `COS(=O)(=O)C(F)(F)F`, the outcome was “inactive”.
In the case of `OC[C@H]1O[C@@H](Oc2ccc(O)cc2)[C@H](O)[C@@H](O)[C@@H]1O`, the outcome is reported as “inactive”.
